No constants are given. Whether binding was seen depends on the method and setting. In cells and extracts the contact can be indirect. Some entries that bind do so weakly or less than the wild type. Sequences can lack the tags named with a protein.
Key:
Assay in all cases: pull-down; 5 ug GST-PLEKHA7 WW bait (E. coli) coupled to GSH-Sepharose beads, washed, incubated 1 h at 4 °C with normalized HEK cell lysate holding PDZD11-HA or CFP-HA; immunoblot with anti-HA; only the target purified
[1] = molecular target: T1, GST-PLEKHA7 WW1 + WW2 domain (1-162) D30A + N76A (human) (UniProt Q6IQ23)
T1 sequence: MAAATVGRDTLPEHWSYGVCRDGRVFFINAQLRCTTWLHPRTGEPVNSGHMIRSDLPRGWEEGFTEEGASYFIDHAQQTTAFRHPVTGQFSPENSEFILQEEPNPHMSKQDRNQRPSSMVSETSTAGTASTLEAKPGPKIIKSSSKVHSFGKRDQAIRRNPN

[2] = molecular target: T2, GST-PLEKHA7 WW1 + WW2 domain (1-162) F27A (human) (UniProt Q6IQ23)
T2 sequence: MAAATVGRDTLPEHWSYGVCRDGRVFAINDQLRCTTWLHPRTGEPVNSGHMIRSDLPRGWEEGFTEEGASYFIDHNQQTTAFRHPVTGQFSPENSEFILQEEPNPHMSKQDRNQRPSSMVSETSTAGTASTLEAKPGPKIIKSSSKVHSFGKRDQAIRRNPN

[3] = molecular target: T3, GST-PLEKHA7 WW1 + WW2 domain (1-162) R33A + D74A (human) (UniProt Q6IQ23)
T3 sequence: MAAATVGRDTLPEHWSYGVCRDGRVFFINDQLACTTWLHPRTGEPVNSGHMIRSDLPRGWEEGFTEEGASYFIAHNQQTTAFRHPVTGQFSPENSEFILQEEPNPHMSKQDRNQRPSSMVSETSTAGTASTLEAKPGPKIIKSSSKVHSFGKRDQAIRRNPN

[4] = molecular target: T4, GST-PLEKHA7 WW1 + WW2 domain (1-162) T35A + H75A (human) (UniProt Q6IQ23)
T4 sequence: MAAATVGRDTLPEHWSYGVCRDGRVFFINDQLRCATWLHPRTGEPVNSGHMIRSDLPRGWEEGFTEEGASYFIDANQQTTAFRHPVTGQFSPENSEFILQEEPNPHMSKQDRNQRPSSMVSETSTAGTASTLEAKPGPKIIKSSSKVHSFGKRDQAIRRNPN

[5] = molecular target: T5, GST-PLEKHA7 WW1 + WW2 domain (1-162) W15A (human) (UniProt Q6IQ23)
T5 sequence: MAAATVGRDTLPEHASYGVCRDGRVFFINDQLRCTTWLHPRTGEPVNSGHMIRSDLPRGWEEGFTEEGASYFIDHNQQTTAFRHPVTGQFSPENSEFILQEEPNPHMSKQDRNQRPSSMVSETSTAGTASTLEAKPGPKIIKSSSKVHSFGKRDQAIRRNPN

[6] = molecular target: T6, GST-PLEKHA7 WW1 + WW2 domain (1-162) Y17A (human) (UniProt Q6IQ23)
T6 sequence: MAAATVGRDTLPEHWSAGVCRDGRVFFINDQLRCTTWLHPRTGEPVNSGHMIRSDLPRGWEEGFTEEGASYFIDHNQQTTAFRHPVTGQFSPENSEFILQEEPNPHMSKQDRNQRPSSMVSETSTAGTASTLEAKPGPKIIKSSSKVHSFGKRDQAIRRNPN

[7] = molecular target: T7, GST-PLEKHA7 WW1 + WW2 domain (1-162), mutation within the WW2 domain at position 71 (human) (UniProt Q6IQ23)
T7 sequence: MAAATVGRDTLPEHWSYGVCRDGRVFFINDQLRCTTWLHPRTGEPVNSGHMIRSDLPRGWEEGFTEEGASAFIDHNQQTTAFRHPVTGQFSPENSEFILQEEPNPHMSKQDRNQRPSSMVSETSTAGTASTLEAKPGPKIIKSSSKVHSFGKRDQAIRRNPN

[8] = molecular target: T8, GST-PLEKHA7 WW1 domain (residues 1-56) F27A (human) (UniProt Q6IQ23)
T8 sequence: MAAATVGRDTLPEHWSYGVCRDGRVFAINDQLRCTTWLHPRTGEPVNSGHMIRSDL

[9] = molecular target: T9, GST-PLEKHA7 WW1 domain (residues 1-56) T35A (human) (UniProt Q6IQ23)
T9 sequence: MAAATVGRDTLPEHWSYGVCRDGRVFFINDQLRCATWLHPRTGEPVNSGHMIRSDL

- binding [1]: binds
- binding [2]: binds
- binding [3]: binds
- binding [4]: no binding
- binding [5]: binds
- binding [6]: binds
- binding [7]: binds
- binding [8]: binds
- binding [9]: no binding
B1: PDZD11-HA (human) full-length (protein, UniProt Q5EBL8 1-140)
chain: MDSRIPYDDYPVVFLPAYENPPAWIPPHERVHHPDYNNELTQFLPRTITLKKPPGAQLGFNIRGGKASQLGIFISKVIPDSDAHRAGLQEGDQVLAVNDVDFQDIEHSKAVEILKTAREISMRVRFFPYNYHRQKERTVH
